Assay results published in PubChem BioAssay AID1508624 (National Center for Advancing Translational Sciences (NCATS), 2021).
The whole screen tested about 48,000 compounds, of which about 120 (0.25%) were called active. Not shown: some 4% with an inconclusive outcome. Calls come from the whole dose curve; as a rule, active = well fitted activation curve with a large enough effect; inconclusive = small, poorly fitted or top-dose-only effect, or another doubt; inactive = no such curve, though single readings can be large or run the other way. The list shows a part of the results.

Assay: Primary qHTS for Identification of Small Molecule Activators of Huntingtin-Antisense Promoter Activity; note: nearly all actives have a fitted effect of over 55% in size
Settings: HEK293 HTT-AS promoter firefly luciferase reporter, 24 h; series mostly up to 57.5 µM; activity change, positive = activation: at the top concentration
Outline: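 HEK293 luciferase promoter-reporter cells (2,500/well) plated 24 h, then compounds added at up to 57.5 uM final for 24 h at 37 °C. Firefly luminescence by Dual-Glo, normalized to vehicle (0%) and zero RLU (-100%).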

Row | Structure (SMILES) | activity change, positive = activation
1 | COc1ccc(-c2noc(CCC(=O)N(C)c3cc(Cl)ccc3OC)n2)cc1 | inactive: -15.8%
2 | CC(C)CCOc1ccc(C(=O)NCC2OCCc3ccccc32)cc1 (stereo not given) | inactive: -9.12%
3 | COc1ccc(NS(=O)(=O)c2ccc(N3CCCCS3(=O)=O)cc2)cc1Cl | inactive: -24%
4 | COc1cccc(-n2c(=O)c3cc(OC)c(OC)cc3n(CC(=O)Nc3ccc(F)cc3)c2=O)c1 | inactive: -20.9%
5 | COc1ccccc1N1CCN(c2ncnc3c2c(-c2ccccc2)cn3-c2cccc(Cl)c2)CC1 | inactive: -11.2%
6 | Cc1ccc(OCCSc2nc(-c3ccccc3C)nc3cc(=O)[nH]n23)cc1Cl | inactive: 6.67%
7 | Cc1nn(-c2nc(-c3ccccc3)cc(C(F)(F)F)n2)c(C)c1Cl | inactive: -20.1%
8 | CCc1nn(C(CC)C(=O)NCc2ccc(OC)c(OC)c2)c(=O)c2cc3oc(C)cc3n12 (stereo not given) | inactive: -27.7%
9 | COc1ccc(S(=O)(=O)N2CCC(Oc3ccc(-n4cnnn4)cc3)CC2)cc1 | inactive: -4%
10 | COc1cccc(OC)c1C(=O)NCCc1sc(-c2cccc(F)c2)nc1C | inactive: -15.1%
11 | CCOc1ccc2c(c1)c(=O)c(C(=O)c1ccc3c(c1)OCO3)cn2Cc1ccc(F)cc1 | inactive: -18.4%
12 | CC(N)CCCC(C)(C)O (stereo not given) | inactive: 0.0651%
13 | COc1cc(/C=C(\C#N)c2nc3ccc(C)cc3[nH]2)ccc1OCc1ccc(C)cc1 | inactive: -5.8%
14 | CC(=O)Nc1ccc(NC(=O)c2nc(S(=O)(=O)Cc3ccc(F)cc3)ncc2Cl)cc1 | inactive: -94.2%
15 | COc1cccc(CNC(=O)c2cnc3c(-c4ccc(F)cc4)c(C)nn3c2C)c1 | inactive: 0.905%
16 | CCc1ccc(C2C(C(=O)Nc3ccccc3OC)=C(C)Nc3c(C(=O)Nc4ccc(C)cc4)cnn32)cc1 (stereo not given) | inactive: -23.6%
17 | CCN(C(=O)c1cn(-c2cccc(OC)c2)c(=O)c2ccccc12)c1ccccc1C | inactive: -27.5%
18 | COc1ccc(C(=O)Nc2ccccc2-c2nc3ccccc3s2)cc1OC | inactive: -14.5%
19 | Cc1ccc(C)c(NC(=O)CSc2nccn2-c2cccc(C)c2C)c1 | inactive: -9.21%
20 | COc1ccc(OC)c(NC(=O)c2oc(=O)c3ccccc3c2-c2ccccc2)c1 | inactive: -17.4%

Row | Structure (SMILES) | activity change, positive = activation
21 | COc1ccc(CC(=O)N2CCc3cc(OC)c(OC)cc3C2COc2ccc(F)cc2)cc1 (stereo not given) | inactive: -29.5%
22 | N#CCC(=O)NN | inactive: -4.46%
23 | COc1cc2c(cc1OC)C(c1cccc(Cl)c1)CC(=O)N2 (stereo not given) | inactive: -16.9%
24 | Cn1nc(-c2ccccc2F)c2cc(C(=O)NCc3ccccc3Cl)sc21 | inactive: -40.4%
25 | COc1ccc(N2CCN(S(=O)(=O)c3ccc(F)c(C(=O)Nc4ccccc4Cl)c3)CC2)cc1 | inactive: -38.4%
26 | CCc1ccc(OCCSc2nc3ccccc3n2CC(=O)N2CCCCC2)cc1 | inactive: -39%
27 | O=C(c1ccc(F)cc1)N1CCc2c([nH]c3ccccc23)C1c1ccc(Cl)cc1 (stereo not given) | inactive: -32.1%
28 | CCOc1ccc(NCc2cccn2-c2nnc(N3CCC(C(=O)NCc4ccccc4Cl)CC3)s2)cc1 | inactive: -56.6%
29 | CC(C)(C)OC(=O)N1CCC(c2c(C(=O)NCc3cccs3)cnn2-c2cccc(F)c2)CC1 | inactive: -16%
30 | COc1ccc(Cl)cc1NC(=O)N1CCN(S(=O)(=O)c2ccc3c(ccn3C)c2)CC1 | inactive: -19.8%
31 | O=C(c1ccc2c(Cl)c3c(nc2c1)CCCC3)N1CCN(c2ccc(Cl)cc2)CC1 | inactive: -8.61%
32 | COc1ccc(N2CCN(CCCNC(=O)C3COc4ccccc4C3)CC2)cc1 (stereo not given) | inactive: -5.18%
33 | O=C(Nc1nc2c(F)cc(F)cc2s1)c1ccc(S(=O)(=O)N2CCc3ccccc32)cc1 | inactive: -56.1%
34 | CCOc1ccc(-n2c(=O)c3c4c(sc3n(CC(=O)NC(C)CC)c2=O)CCCCC4)cc1 (stereo not given) | inactive: -13.4%
35 | Cc1ccc(CNC(=O)CSc2nc3c(sc4ccccc43)c(=O)n2CCCC(=O)NCCO)cc1 | inactive: 4.74%
36 | O=C(Nc1ccc(F)cc1)Nc1csc2c1CCCC2 | inactive: 6.43%
37 | C[C@@H](O[C@H]1OCCN(Cc2n[nH]c(=O)[nH]2)[C@H]1c1ccc(F)cc1)c1cc(C(F)(F)F)cc(C(F)(F)F)c1 | inactive: -44.4%
38 | CCN1C(C(=O)c2ccccc2)=C(OC(=O)COc2ccc(C)cc2)c2ccccc2S1(=O)=O | inactive: -39.8%
39 | Oc1cccc(O)c1 | inactive: 0.476%
40 | C[C@@H]1CCC[C@H](C)N1 | inactive: -2.97%

Row | Structure (SMILES) | activity change, positive = activation
41 | Cc1ccccc1-c1noc(CSc2nc3ccccc3[nH]2)n1 | inactive: -29.4%
42 | COc1ccc(CCCc2nnc(SCC(=O)Nc3cccc(F)c3C)o2)cc1 | inactive: -19.8%
43 | CCOCCc1nn2c(=O)cc(COC(=O)c3ccccc3OC)nc2s1 | inactive: -0.644%
44 | CCOC(=O)C1CCCN(C(=O)c2ccc3c(c2)sc2nc(-c4cccc(OC)c4)cn23)C1 (stereo not given) | inactive: -76.4%
45 | COCCCn1c(SCc2cccc(Cl)c2)nc2c(sc3ccccc32)c1=O | inactive: -10.5%
46 | Cc1cc(=O)n2nc(N(C)CC(=O)NCc3ccccc3C)sc2n1 | inactive: -4.79%
47 | CCCC(=O)Nc1cccc(OCc2cc(=O)n3cccc(C)c3n2)c1 | inactive: 8.62%
48 | CCc1ccccc1Nc1nn2c(=O)c3ccc(C(=O)NCCC4=CCCCC4)cc3nc2s1 | inactive: -21%
49 | Cc1c(-c2cccc3c(CCCOc4cccc5ccccc45)c(C(=O)O)n(Cc4cccnc4)c23)c(COc2ccc(N3CCN([S+](=O)([O-])N(C)C)CC3)cc2)nn1C | inactive: -22.1%
50 | O=C(NCCc1ccccc1)c1cc(Nc2ccccc2)nc2ccccc12 | inactive: -14.2%
51 | CCOCCc1nnc(NC(=O)C(=O)c2cc(C)n(-c3ccc(C)cc3C)c2C)s1 | inactive: -4.1%
52 | CCn1c(C)c(C)c2cc(C(=O)NCC(C)c3ccccc3)ccc21 (stereo not given) | inactive: -3.69%
53 | COc1ccc(N(CC(=O)Nc2cccc(Cl)c2)S(=O)(=O)c2c(C)[nH]c(=O)[nH]c2=O)cc1 | inactive: 0.391% [at 11.5 µM, percent change from vehicle, -100% = no light]
54 | CCOc1ccc(Nc2nc(-c3cccc(Cl)c3)c3c(n2)-c2ccccc2OC3)cc1 | inactive: -12.5%
55 | CCC1CN(C(=O)N2CCC(C(=O)NCCc3ccc(OC)cc3OC)CC2)c2cc(C)ccc2O1 (stereo not given) | inactive: -45.8%
56 | Cc1cccc(OCc2nc(CC(=O)Nc3ccc(Cl)cc3)cs2)c1 | inactive: -14.7%
57 | Cc1cccc(C)c1-n1ncc(C(=O)NCCCN2CCC(C)CC2)c1C1CCN(C(=O)OC(C)(C)C)CC1 | inactive: 10.7%
58 | CCOC(=O)c1cnc2c(ccc3ccccc32)c1Nc1ccc(C(C)=O)cc1 | inactive: -31.8%
59 | COc1cccc(CSc2nc3ccncc3n2CC(=O)Nc2ccc(OC)c(OC)c2OC)c1 | inactive: 3.11%
60 | Cc1cn(-c2cc(NC(=O)c3ccc(C)c(Nc4nccc(-c5cccnc5)n4)c3)cc(C(F)(F)F)c2)cn1 | inactive: -8.1%
